In all, about 46,000 compounds went through this assay and about 60 (0.1%) were called active. Another 3% or so got no clear call; they are omitted. Calls follow the shape of the dose curve; as a rule, active = well fitted inhibition curve with a large enough effect; inconclusive = small, poorly fitted or top-dose-only effect; inactive = no such curve, though single readings can be large or run the other way. The list shows a part of the results.
experiment: Primary qHTS assay for Inhibitors of ovarian cancer metastasis using an organotypic tumor microenvironment (TME) model.; also: nearly all actives have a fitted effect of over 65% in size;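 as to activity change, negative = inhibition: plate controls were DMSO wells for no effect and tomatine positive control wells for full effect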; conditions: SKOV3ip1-GFP adhesion/invasion on 3D omental model, fluorescence; series mostly up to 45.8 µM; activity change, negative = inhibition: at the top concentration
How it was run: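 qHTS, 4-pt dose (0.36-46 umol/L); SKOV3ip1-GFP, 1,200 cells/well, no FBS; primary omental fibroblast/mesothelial co-culture 48 h pre-grown; 2 h RT + 16 h 37 C; PBS wash, 4% PFA; GFP count 488/509 nm.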

Activity change, negative = inhibition, inactive:
Cc1cc(C)n(-c2nc3ccccc3nc2N2CCN(c3cccc(C)c3C)CC2)n1 7.55%
CCOc1ccc(NC(=O)NCc2ccc3c(c2)CCN3C(C)=O)cc1 -2.66%
CCOC(=O)c1cc2c(=O)n3ccccc3nc2n(CC2CCCO2)c1=NC(=O)c1ccc(OC)cc1OC (stereo not given) -2.46%
CCCN(CCC)CCCNC(=O)Cn1cc2c(n1)-c1c(oc(C(=O)N3CCCC3)c1C)CC2 -3.01%
COc1cccc(C(=O)c2cn(CC(=O)NCCc3ccccc3)c3nc(C)ccc3c2=O)c1 4.46%
CCOC(=O)N1CCc2c(sc3c2C(=O)NC(c2cc(OC)c(O)c(OC)c2)N3)C1 (stereo not given) 9.53%
CCCNC(=O)C(CC)n1nc(CC)n2c(cc3oc(C)cc32)c1=O (stereo not given) 1.47%
CCCN1CCN(CCCNC(=O)Cn2c(-c3cccs3)cc3ccccc32)CC1 4.54%
Cc1nn(C(=O)c2cccc(F)c2)c(C)c1S(=O)(=O)N1CCCCCC1 1.84%
Cn1nc(-c2ccccc2F)c2cc(C(=O)N3CCN(c4ccc(F)cc4)CC3)sc21 -16.9%
CCOC(=O)c1[nH]c(C)c(CCC(=O)NCc2ccccc2C)c1C -6.9%
Cn1c(=O)n(C/C=C/c2ccccc2)c(=O)c2c1nc1n2CCN1c1ccc(Cl)cc1 5.48%
COc1ccc(Cn2c(SCc3ccc(C(=O)NCCc4ccccc4)cc3)nc3cccnc32)cc1 1.47%
CCN(CC)c1nn2c(=O)c(C(=O)NCc3cccc(C)c3)cnc2s1 27.7%
NCCc1ccc(O)c(O)c1 -10.3%
Cc1cc(C)cc(NS(=O)(=O)c2ccc3[nH]cc(C(=O)N4CCCCCC4)c(=O)c3c2)c1 2.63%
COc1ccc(OC)c(Nc2ncnc3c2cnn3-c2ccc(C)cc2)c1 -8.11%
Cc1cccc(N2CCN(S(=O)(=O)c3ccc(F)c(C(=O)Nc4ccc(C(C)C)cc4)c3)CC2)c1C 2.25%
Cc1ccc(C)c(NC(=O)CSc2nc(=O)n(Cc3ccccn3)c3c2CCC3)c1 35.5%
CC(=O)N1CCc2cc(Br)cc(S(=O)(=O)N3CCN(c4cc(C)ccc4C)CC3)c21 -6.05%
CC(=O)N1c2ccccc2C(=O)C1N1CCN(c2cccc(C(F)(F)F)c2)CC1 (stereo not given) 3.91%
C#CC(C)(CC)NC(=O)c1cc2c(n(-c3ccc(Cl)cc3)c1=O)CC(C)(C)CC2=O (stereo not given) -6.26%
COc1ccccc1N(CC(=O)Nc1ccc(C)c(Cl)c1)S(=O)(=O)c1ccc(C)cc1 8.83%
CC1(C)Cc2c(sc(NC(=S)NC(=O)c3ccccc3)c2C(=O)O)CO1 0.418%
O=C(C1CCC1)N1CCCc2cc(S(=O)(=O)Nc3ccc(F)cc3)ccc21 1.27%
CCN1CCN(c2c(S(=O)(=O)c3ccccc3)cnc3ccc(Cl)cc23)CC1 -5.31%
Cc1cccc(CNC(=O)CCCN2C(=O)CCn3nc(-c4cn(C)c5ccccc45)cc32)c1 -7.13%
OCc1nc2ccccc2n1Cc1c(F)cccc1Cl 1.19%
CC(C)(C)OC(=O)N1CCC(c2c(C(=O)N3CCN(c4ccc(Cl)cc4)CC3)cnn2-c2ccc(F)cc2F)CC1 10.8%
Cc1ccccc1OCC(=O)Nc1ccc2nc(SCC(=O)N(C)c3ccccc3)sc2c1 -12%
COc1ccccc1CNC(=O)CCCn1nc(C)c2sc3ccccc3c2c1=O -10.1%
COCCCn1c(=N)c(S(=O)(=O)c2ccccc2)cc2c(=O)n3cc(C)ccc3nc21 9.9%
COc1cccc(NC(=O)C2CCCN(c3nnc(-n4c(C)ccc4C)s3)C2)c1 (stereo not given) -23.4%
Cc1ccc(OCC(=O)OCc2cc(=O)n3nc(-c4cccs4)sc3n2)cc1 -9.99%
COc1ccc(CNc2nc(-c3ccco3)nn2C(=O)c2ccccc2Cl)cc1 -1.02%
COc1cc(NC(=O)c2cc(-c3cccs3)on2)c(OC)cc1Cl 9.88%
COc1ccc(-c2cc(C(=O)Nc3ccc4c(c3)OCO4)no2)cc1OC -14.1%
Cc1ccc(Cn2c(CNS(=O)(=O)c3ccc(C(C)(C)C)cc3)nc3cccnc32)cc1 8.55%
Cc1nc2sccn2c(=O)c1S(=O)(=O)NCc1ccc(F)cc1 16.4%
CCc1ccc(NC(=O)CSc2c(C)cnc3c2c(=O)n(C)c(=O)n3C)cc1 -19.9%
C[C@H](Cc1ccc(O)c(O)c1)[C@@H](C)Cc1ccc(O)c(O)c1 -15.3%
O=C(c1cc(-c2ccc(Cl)cc2)on1)N(Cc1cccc(F)c1)Cc1ccco1 10.5%
Cn1cc(S(=O)(=O)c2ccc(Cl)cc2)c(=O)c2cc(F)c(N3CCCC3)cc21 -2.05%
O=C(COc1ccccc1Cl)OCc1cc(=O)n2nc(C3CC3)sc2n1 -9.41%
COc1ccccc1CNc1nc2ccccc2c2nc(-c3cccnc3)nn12 -6.76%
Cc1c(NC(=O)c2cc(-c3ccc(O)cc3)on2)c(=O)n(-c2ccccc2)n1C -0.259%
COc1ccc(NC(=O)C(=O)NCCc2ccc(OC)c(OC)c2)c(OC)c1 -4.96%
COC(=O)c1ccc(NC(=O)CSc2cn(CC(=O)N3CCCCCC3)c3ccccc23)cc1 3.68%
COc1ccc(-c2cc3nc(-c4ccc(Br)cc4)cc(C(F)(F)F)n3n2)cc1 4.96%
COc1ccc(CCNC(=O)c2cccc(-n3c(C)nc4cccnc43)c2)cc1OC 7.77%
COc1ccc(CNC(=O)C2CCN(C(=O)c3ccc(-n4ccc5ccccc54)s3)CC2)cc1 -3.71%
COCCCNC(=O)c1cnn(-c2ccccc2Cl)c1C1CCN(C(=O)OC(C)(C)C)CC1 -9.83%
COC(=O)c1cc(C)nc2c1c(=O)nc(SCc1cccc(C)c1)n2C1CC1 -11.1%
COc1ccc(NC(=O)Cn2c(C)cc3ccccc3c2=O)c(OC)c1 0.589%
Cc1nn(-c2nc(-c3ccc(F)cc3)cc(C(F)(F)F)n2)c(C)c1Br -8.77%
CC1=Nc2cc(C(=O)NC3CCCC3)ccc2Sc2ccc(C)cc21 9.35%
CSc1ccc(CCNC(=O)CCCn2nc(C)c3sc4ccccc4c3c2=O)cc1 -22.4%
Cc1cccc(NC(=O)CN2C(=O)c3cccnc3Oc3ccc(Cl)cc32)c1C 3.91%
CCc1cccc(CC)c1NC(=O)c1ccc2c(c1)CCN2S(=O)(=O)c1ccccc1 2.91%
COc1ccccc1OCC(=O)N(Cc1ccc(Cl)cc1)CC1CCCO1 (stereo not given) -9.97%
CC(=O)c1ccc(NC(=O)CC2Nc3cccc4cccc(c34)NC2=O)cc1 (stereo not given) -21.4%
CCOc1ccc(Oc2nc(NCC(C)C)nc(NC(C)(C)C)n2)nn1 6.31%
COc1cccc(NC(=O)CCc2c(C)nc3c4cccnc4nn3c2C)c1 2.94%
O=C(Nc1ccc(N2CCC(c3ccccc3)C2)c(C(=O)O)c1)c1ccc(Cl)cc1 (stereo not given) -7.28%
CCOc1ccc(CNC(=O)CCS(=O)(=O)c2cc3c(cc2Cl)NC(=O)CO3)cc1OC 3.88%
Cc1n[nH]c(C)c1S(=O)(=O)N(CC(=O)NC(C)c1ccccc1)c1ccc(C(C)C)cc1 (stereo not given) 32.4%
Cc1ccc(NC(=O)Cn2c(=O)c3cc(Cl)ccc3n3nncc23)cc1 -15.5%
COc1cccc(NC(=O)Cn2cnc3c(nc4n3CCCCC4)c2=O)c1 14.1%
COCCCNC(=O)CN1C(=O)COc2ccc(S(=O)(=O)N3CCCC3)cc21 -7.69%
COC(=O)CS(=O)(=O)c1nc2ccccc2nc1N1CCCCC1 3.69%
CC(C)CCNC(=O)Nc1ccc2c(c1)N(C)C(=O)c1ccccc1S2 -14.6%
COCCCNc1ncnc2onc(-c3ccc(F)cc3)c12 17.7%
Cc1ccc(-c2cc(C(=O)N3CCN(S(=O)(=O)c4ccc(Br)cc4)CC3)[nH]n2)cc1C -28.6%
CC1=C(c2ccc(C)c(C)c2)S(=O)(=O)N=C1N1CCC(C(=O)NCCc2ccco2)CC1 -5.83%
CCOc1ccc(NCc2cccn2-c2nnc(N3CCC(C(=O)NCCc4ccc(OC)c(OC)c4)CC3)s2)cc1 -0.982%
COc1ccc(N2CCN(C(=O)CCc3c(C)nc4cc(-c5ccc(Cl)cc5)nn4c3C)CC2)cc1 15.7%
CCC(=O)NCC(c1ccc2c(c1)OCO2)N1CCN(c2ccccc2)CC1 (stereo not given) -11.6%

outcome, inactive:
COc1cccc(NC(=O)Cn2c(=O)n(CCc3ccccc3)c(=O)c3c4c(sc32)CN(C(C)=O)CC4)c1
Cc1ccc(C(=O)c2oc3ccccc3c2NC(=O)COc2ccccc2Cl)cc1
CCC(C)NC(=O)Cn1c(=O)n(Cc2ccc(C(=O)NCc3ccccc3OC)cc2)c(=O)c2ccccc21 (stereo not given)
CCn1cc(S(=O)(=O)c2ccc(C)cc2)c(=O)c2cc(F)c(N3CCCCCC3)cc21
COc1ccc(-c2noc(CN3CCN(c4cccc(Cl)c4)CC3)n2)cc1
COCCn1c(C)cc(O)c(C(c2ccc(C)cc2)N2CCCCC2)c1=O (stereo not given)
CCOc1ccc(CC(=O)NC2CC(=O)N(c3ccc(C)c(C)c3)C2)cc1 (stereo not given)
Cc1ccccc1OCC(=O)N(Cc1ccc(N(C)C)cc1)CC1CCCO1 (stereo not given)
Cn1cc(-c2cc3n(n2)CCC(=O)N3CC(=O)O)c2ccccc21
Cn1c(=O)c2nc(SCC(=O)Nc3cc(Cl)cc(Cl)c3)n(C)c2n(C)c1=O
COc1ccc(Cl)cc1NC(=O)c1cc2ccc3ccc(C)[nH]c3c2n1
COc1cccc(C(=O)Nc2ccccc2C(=O)OCc2cc(=O)n3c(C)csc3n2)c1
Cc1nn(-c2ccc(F)cc2)c(-n2cccc2)c1C(=O)NCCCN1CCN(c2ccccc2F)CC1
CCOC(=O)c1ccccc1NC(=O)Nc1cc2c(cc1N1CCCCC1)n(C)c(=O)n2C
COc1ccc(C(=O)NCCn2cc(SCC(=O)NCCc3ccc(OC)c(OC)c3)c3ccccc32)cc1
CS(=O)(=O)N1CCc2cc(C(=O)NCCc3ccccc3)ccc21
Cc1nc2ccccc2c(=O)n1-c1ccc(NC(=O)c2ccc([N+](=O)[O-])cc2)cc1
COc1ccc(-c2[nH]nc3nc(-c4cc(OC)c(OC)c(OC)c4)cc(C(=O)O)c23)cc1

Reference: PubChem BioAssay AID1963576 (National Center for Advancing Translational Sciences (NCATS), 2024)
